In publication PMC11995724, “Antibiotic target discovery by integrated phenotypic and activity-based profiling of electrophilic fragments” (Cell chemical biology, 2025):
Out of some 3,200 compounds screened, about 110 (3.4%) showed an effect of 50% or more. The list shows a part of the results.

test system: T1, V. cholerae SAD30; design: species or system S. aureus MSSA476 (TSB) or V. cholerae SAD30 (LB); 384-well bacterial growth screen at 25 uM, OD600 relative to DMSO control; conditions: relative growth, OD600, LB; 25 µM; inhibitor
T1 construct: SAD30

| Structure (SMILES) | % of control remaining |
| --- | --- |
| Cc1ccc(NC(=O)C(C)Cl)cc1 (stereo not shown) [4-J15, 2-chloro-N-(4-methylphenyl)propanamide] | 98.3394% |
| CC(Cl)C(=O)N1CCCc2c1ccc1c2ncn1C (stereo not shown) [6-B19, 2-chloro-1-{3-methyl-3H,6H,7H,8H,9H-imidazo[4,5-f]quinolin-6-yl}propan-1-one] | 96.6158% |
| CC(Cl)C(=O)NC1CC(=O)N(Cc2ccccc2C(F)(F)F)C1 (stereo not shown) [6-J19, 2-chloro-N-(5-oxo-1-{[2-(trifluoromethyl)phenyl]methyl}pyrrolidin-3-yl)propanamide] | 91.4589% |
| CC(Cl)C(=O)N1CCc2oc(-c3ccccc3)cc2C1 (stereo not shown) [6-B21, 2-chloro-1-{2-phenyl-4H,5H,6H,7H-furo[3,2-c]pyridin-5-yl}propan-1-one] | 74.4715% |
| CC(Cl)C(=O)N1CCN(C(=O)c2cccc(OC(F)F)c2)CC1 (stereo not shown) [5-F17, 2-chloro-1-{4-[3-(difluoromethoxy)benzoyl]piperazin-1-yl}propan-1-one] | 93.643% |
| Cc1c(Cl)cccc1NC(=O)C(C)Cl (stereo not shown) [6-I10, 2-chloro-N-(3-chloro-2-methylphenyl)propanamide] | 83.2686% |
| CN1C(=O)c2ccccc2C1CNC(=O)CCl (stereo not shown) [7-B10, 2-chloro-N-[(2-methyl-3-oxo-2,3-dihydro-1H-isoindol-1-yl)methyl]acetamide] | 88.5511% |
| O=C(CCl)NC(Cc1ccccc1)c1ccccc1 (stereo not shown) [4-L11, 2-chloro-N-(1,2-diphenylethyl)acetamide] | 95.579% |
| C=CC(=O)N(C)CC(=O)Nc1ccc(N2CCC(O)CC2)cc1 [3-P06, N-({[4-(4-hydroxypiperidin-1-yl)phenyl]carbamoyl}methyl)-N-methylprop-2-enamide] | 111.851% |
| C=CC(=O)NCc1ccc(C(=O)N2CCC(NC(C)=O)CC2)cc1 [2-A12, N-{[4-(4-acetamidopiperidine-1-carbonyl)phenyl]methyl}prop-2-enamide] | 97.2981% |
| Cc1cccc(C=C(C#N)C(=O)Nc2ccc(C(=O)O)cc2)c1 [8-M21, 4-[2-cyano-3-(3-methylphenyl)prop-2-enamido]benzoic acid] | 75.7988% |
| C=CC(=O)NCc1cnc2ccsc2c1 [2-D11, N-({thieno[3,2-b]pyridin-6-yl}methyl)prop-2-enamide] | 86.4904% |
| C=CC(=O)N1CSCC1C(=O)N(C)C (stereo not shown) [1-G03, N,N-dimethyl-3-(prop-2-enoyl)-1,3-thiazolidine-4-carboxamide] | 105.232% |
